In all, about 2,900 compounds were measured (“NF-kB SEAP reporter activity, fold change vs agonist alone”: median about 0.99, highest 2% from about 2.6 on). Some of the results follow.
Key:
[1] = tested on: RAW-Dual; test: NF-kB SEAP reporter activity, fold change vs agonist alone; cytotoxicity flag (confluency mask): not cytotoxic; higher = enhanced NF-kB activity
Procedure, shortened: (§1)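 After 50 nL of library stock was delivered by pin tool to RAW-Dual macrophages (50,000 cells/well, DMEM, 384-well plates), a PRR agonist was added 1 h later and the plates were kept at 37 °C, 5% CO2. Twenty hours later, IRF was read from supernatant by QuantiLuc luminescence and NF-κB by QuantiBlue absorbance at 620 nm. Reporter activity is stated as fold change over agonist-alone wells. Wells with IncuCyte confluency under 70% of agonist controls in both mask sets were counted as cytotoxic.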

[2] = tested on: RAW-Dual; test: NF-kB SEAP reporter activity, fold change vs agonist alone; higher = enhanced NF-kB activity; conditions: library stock concentration (final ~1000-fold dilution): 10 mM, cytotoxicity flag (confluency mask): not cytotoxic
Procedure, shortened: as §1

[3] = agonist: ODN 1826 (TLR9) 0.5 ug/mL
[4] = agonist: Pam2CSK4 (TLR2/6) 0.1 ug/mL
[5] = agonist: Pam3CSK4 (TLR2/1) 0.1 ug/mL

SMILES | NF-kB SEAP reporter activity ([1]; agonist: LPS (TLR4) 0.1 ug/mL) | NF-kB SEAP reporter activity [1, 3] | NF-kB SEAP reporter activity [1, 4] | NF-kB SEAP reporter activity [1, 5] | NF-kB SEAP reporter activity ([2]; agonist: Imiquimod (TLR7) […]) | NF-kB SEAP reporter activity ([2]; agonist: MPLA (TLR4) […])
CCC12C=CCN3CCC4(C(=C(C(=O)OC)C1)Nc1ccccc14)C32.Cl (stereo not given) (library stock concentration (final ~1000-fold dilution): 10 mM) | 1.38 | 0.924 | 0.947 | 1.17 | – | –
C1CCc2nnnn2CC1 | – | – | – | – | 0.914 | 1.05
C1CCc2nnnn2CC1 (library stock concentration (final ~1000-fold dilution): 10 mM) | 0.992 | 0.982 | 1.02 | 1.02 | – | –
C=CCN1CC(C(=O)N(CCCN(C)C)C(=O)NCC)CC2c3cccc4[nH]cc(c34)CC21 (stereo not given) | – | – | – | – | 1.26 | 1.42
C=CCN1CC(C(=O)N(CCCN(C)C)C(=O)NCC)CC2c3cccc4[nH]cc(c34)CC21 (stereo not given) (library stock concentration (final ~1000-fold dilution): 10 mM) | 1.04 | 0.182 | 0.988 | 0.809 | – | –
CC[C@H]1CN2CC[C@]3(C(=O)Nc4ccccc43)[C@@H]2C[C@@H]1/C(=C\OC)C(=O)OC (library stock concentration (final ~1000-fold dilution): 10 mM) | 1.21 | 1.05 | 0.949 | 1.03 | – | –
CC[C@H]1CN2CC[C@]3(C(=O)Nc4ccccc43)[C@@H]2C[C@@H]1/C(=C\OC)C(=O)OC | – | – | – | – | 0.86 | 1.04
COC1=CC2C3Cc4ccc(OC)c(O)c4C2(CCN3C)CC1=O.Cl (stereo not given) | – | – | – | – | 0.858 | 0.999
COC1=CC2C3Cc4ccc(OC)c(O)c4C2(CCN3C)CC1=O.Cl (stereo not given) (library stock concentration (final ~1000-fold dilution): 10 mM) | 0.877 | 0.884 | 1.16 | 1.09 | – | –
CC1=CC2Cc3[nH]c(=O)ccc3C3(C1)NCCCC23 (stereo not given) (library stock concentration (final ~1000-fold dilution): 10 mM) | 1.12 | 0.952 | 1.11 | 1.22 | – | –
CC1=CC2Cc3[nH]c(=O)ccc3C3(C1)NCCCC23 (stereo not given) | – | – | – | – | 0.933 | 1.03
COc1cc(C2OCC3C(c4cc(OC)c(OC5OC(CO)C(O)C(O)C5O)c(OC)c4)OCC23)cc(OC)c1OC1OC(CO)C(O)C(O)C1O (stereo not given) (library stock concentration (final ~1000-fold dilution): 10 mM) | 1.18 | 0.89 | 1.11 | 1.5 | – | –
COc1cc(C2OCC3C(c4cc(OC)c(OC5OC(CO)C(O)C(O)C5O)c(OC)c4)OCC23)cc(OC)c1OC1OC(CO)C(O)C(O)C1O (stereo not given) | – | – | – | – | 0.977 | 0.979
